These results are taken from publication PMC10800076.

By UniProt entry, the sequences of proteins in these tests, tags left out. Residues count along the entry.
UniProt P25311, residues 21-298: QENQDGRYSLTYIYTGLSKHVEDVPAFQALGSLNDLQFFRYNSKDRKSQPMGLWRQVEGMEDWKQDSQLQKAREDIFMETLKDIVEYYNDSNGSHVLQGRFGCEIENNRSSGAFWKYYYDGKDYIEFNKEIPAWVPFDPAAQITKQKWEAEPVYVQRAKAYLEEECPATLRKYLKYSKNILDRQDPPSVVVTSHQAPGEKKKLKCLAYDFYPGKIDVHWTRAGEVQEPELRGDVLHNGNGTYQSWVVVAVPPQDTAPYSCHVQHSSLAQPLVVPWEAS

Experiment [1] addresses T1, MIIP in HepG2 and T47-D cells (endogenous or transfected not shown) (human) (UniProt Q5JXC2).
T1 sequence: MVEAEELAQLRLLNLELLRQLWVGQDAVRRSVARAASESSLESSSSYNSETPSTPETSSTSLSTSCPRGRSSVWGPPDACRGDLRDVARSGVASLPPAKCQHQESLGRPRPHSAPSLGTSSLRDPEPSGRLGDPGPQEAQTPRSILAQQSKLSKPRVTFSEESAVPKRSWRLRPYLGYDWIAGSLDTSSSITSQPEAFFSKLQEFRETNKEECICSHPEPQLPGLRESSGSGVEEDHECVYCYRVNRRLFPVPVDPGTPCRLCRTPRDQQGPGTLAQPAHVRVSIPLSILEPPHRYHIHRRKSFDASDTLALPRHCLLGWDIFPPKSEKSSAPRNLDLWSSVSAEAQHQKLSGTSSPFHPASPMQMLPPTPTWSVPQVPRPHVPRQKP
Description: co-IP; HepG2 and T47-D cells with high endogenous AZGP1; antibodies not shown.

The target of experiment [2] is T2, MIIP-Flag (migration and invasion inhibitory protein, from pCMV-MIIP-Flag) (human) (UniProt Q5JXC2).
T2 sequence: T1 sequence
Description: co-IP; HCT116 cells transfected with pCMV-MIIP-Flag; immunoprecipitation with anti-Flag, immunoblot with anti-AZGP1.

In experiment [3] the target is T3, Migration and invasion inhibitory protein (MIIP), Flag-tagged, from pCMV-MIIP-Flag (UniProt Q5JXC2).
T3 sequence: T1 sequence
Description: co-IP; HepG2 and T47-D cells transfected with pCMV-MIIP-Flag for 48 h; lysis buffer 30 mM Tris pH 7.5, 150 mM NaCl, 1% Triton X-100; immunoprecipitation with anti-Flag at 4°C, immunoblot with anti-AZGP1. (In general: Immunoblotting shows a protein as a band on a membrane.)

For experiment [4], the target named is AZGP1-6 × His, wild type (pEX-3-AZGP1-6 × His) (human) (UniProt P25311). Description: co-IP; HCT116 and HepG2 cells overexpressing AZGP1-6 × His, with or without ectopic MIIP (pCMV-MIIP-Flag); lysates precipitated with anti-His, immunoblotted with anti-AZGP1, anti-MIIP, anti-STT3A and anti-STT3B.
Experiment [5] has the same target. Description: co-IP; HCT116 co-transfected with pEX-3-AZGP1-6 × His and pCMV-MIIP-Flag for 48 h; ER protein extract; precipitated with anti-His, immunoblotted with anti-AZGP1 and anti-MIIP.

Results are given in words; binding and its absence hold for the method and conditions named. Binding seen in cells or lysates may run through a third protein. Some entries that bind do so weakly or less than the wild type. For part of these data: Sequences can lack the tags named with a protein.

In the case of “AZGP1 (alpha-2-glycoprotein 1, zinc-binding), endogenous (from UniProt P25311 21-298)”, the binding entry in experiment [1] and in experiment [2] was “binds” each time. With “Alpha-2-glycoprotein 1, zinc-binding (AZGP1), endogenous (from UniProt P25311 21-298)”, the binding entry in experiment [3] was “binds”.

B1: STT3A, catalytic subunit of the N-oligosaccharyl-transferase (OST) complex (enzyme, UniProt P46977 1-705)
chain: MTKFGFLRLSYEKQDTLLKLLILSMAAVLSFSTRLFAVLRFESVIHEFDPYFNYRTTRFLAEEGFYKFHNWFDDRAWYPLGRIIGGTIYPGLMITSAAIYHVLHFFHITIDIRNVCVFLAPLFSSFTTIVTYHLTKELKDAGAGLLAAAMIAVVPGYISRSVAGSYDNEGIAIFCMLLTYYMWIKAVKTGSICWAAKCALAYFYMVSSWGGYVFLINLIPLHVLVLMLTGRFSHRIYVAYCTVYCLGTILSMQISFVGFQPVLSSEHMAAFGVFGLCQIHAFVDYLRSKLNPQQFEVLFRSVISLVGFVLLTVGALLMLTGKISPWTGRFYSLLDPSYAKNNIPIIASVSEHQPTTWSSYYFDLQLLVFMFPVGLYYCFSNLSDARIFIIMYGVTSMYFSAVMVRLMLVLAPVMCILSGIGVSQVLSTYMKNLDISRPDKKSKKQQDSTYPIKNEVASGMILVMAFFLITYTFHSTWVTSEAYSSPSIVLSARGGDGSRIIFDDFREAYYWLRHNTPEDAKVMSWWDYGYQITAMANRTILVDNNTWNNTHISRVGQAMASTEEKAYEIMRELDVSYVLVIFGGLTGYSSDDINKFLWMVRIGGSTDTGKHIKENDYYTPTGEFRVDREGSPVLLNCLMYKMCYYRFGQVYTEAKRPPGFDRVRNAEIGNKDFELDVLEEAYTTEHWLVRIYKVKDLDNRGLSRT
On to B1, for which the binding result in experiment [4] is “binds”.

B2: MIIP-Flag (migration and invasion inhibitory protein, from pCMV-MIIP-Flag) (protein, UniProt Q5JXC2 1-388)
chain: T1 sequence
For the molecule B2, the binding result in experiment [5] is on record as “binds”.

B3: STT3B, catalytic subunit of the N-oligosaccharyl-transferase (OST) complex (enzyme, UniProt Q8TCJ2 1-826)
chain: MAEPSAPESKHKSSLNSSPWSGLMALGNSRHGHHGPGAQCAHKAAGGAAPPKPAPAGLSGGLSQPAGWQSLLSFTILFLAWLAGFSSRLFAVIRFESIIHEFDPWFNYRSTHHLASHGFYEFLNWFDERAWYPLGRIVGGTVYPGLMITAGLIHWILNTLNITVHIRDVCVFLAPTFSGLTSISTFLLTRELWNQGAGLLAACFIAIVPGYISRSVAGSFDNEGIAIFALQFTYYLWVKSVKTGSVFWTMCCCLSYFYMVSAWGGYVFIINLIPLHVFVLLLMQRYSKRVYIAYSTFYIVGLILSMQIPFVGFQPIRTSEHMAAAGVFALLQAYAFLQYLRDRLTKQEFQTLFFLGVSLAAGAVFLSVIYLTYTGYIAPWSGRFYSLWDTGYAKIHIPIIASVSEHQPTTWVSFFFDLHILVCTFPAGLWFCIKNINDERVFVALYAISAVYFAGVMVRLMLTLTPVVCMLSAIAFSNVFEHYLGDDMKRENPPVEDSSDEDDKRNQGNLYDKAGKVRKHATEQEKTEEGLGPNIKSIVTMLMLMLLMMFAVHCTWVTSNAYSSPSVVLASYNHDGTRNILDDFREAYFWLRQNTDEHARVMSWWDYGYQIAGMANRTTLVDNNTWNNSHIALVGKAMSSNETAAYKIMRTLDVDYVLVIFGGVIGYSGDDINKFLWMVRIAEGEHPKDIRESDYFTPQGEFRVDKAGSPTLLNCLMYKMSYYRFGEMQLDFRTPPGFDRTRNAEIGNKDIKFKHLEEAFTSEHWLVRIYKVKAPDNRETLDHKPRVTNIFPKQKYLSKKTTKRKRGYIKNKLVFKKGKKISKKTV
For B3, the binding entry in experiment [4] was “no binding”.
